# Laboratory results as given in PMC9574860, “Chemical Toolkit for PARK7: Potent, Selective, and High-Throughput” (Journal of Medicinal Chemistry, 2022).
# Out of some 7,900 compounds screened, about 400 (5.1%) showed an effect of 50% or more. The list shows a part of the results.
# Biological target: Parkinson's disease protein 7 (PARK7/DJ1) (human, UniProt Q99497)
# Assay: primary screen, percent inhibition; read as competition with a fluorescent probe by fluorescence polarization; higher = more effect of the substance
# Conditions: 100 µM
# Method: The screen was conducted using the conditions as described above in 1536-well plates (Corning 3724) with a reaction volume of 8 μL per well. The compound library containing 7887 covalent fragments was purchased at Enamine Ltd. and received as 100 mM DMSO stocks in 384 well LDV Echo plates (Labcyte LP-0200). Stock solutions of 0.26 μM PARK7 and 80 nM JYQ-107 were prepared. Using a Labcyte Echo550 acoustic dispenser, 8 nL of the DMSO stock solution of the library compounds was transferred from the source plates into the empty 1536-well screening plates to obtain a 100 μM final compound concentration. Next, PARK7 (6 μL, final concentration 0.2 μM) was dispensed using a Biotek MultiflowFX liquid dispenser and incubated for 2 h, followed by dispensing the probe JYQ-107 (2 μL, final concentration 20 nM). After 2 h incubation, the FP signal was recorded on a BMG Labtech PHERAstar plate reader (λex/em 480/520 nm). The relative loss of FP signal compared with reference controls was used to calculate the remaining enzyme activity.
# Chain of Parkinson's disease protein 7 (PARK7/DJ1) (Q99497 whole entry, looked up): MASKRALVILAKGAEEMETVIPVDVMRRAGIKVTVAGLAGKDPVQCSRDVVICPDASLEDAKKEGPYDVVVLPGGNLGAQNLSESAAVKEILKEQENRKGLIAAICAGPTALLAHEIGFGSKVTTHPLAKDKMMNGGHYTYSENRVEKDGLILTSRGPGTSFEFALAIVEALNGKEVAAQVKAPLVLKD
row,SMILES,Inhibition % [%]
1,CN(C1CCCCC1)S(=O)(=O)c1ccc(S)nc1,14.2
2,NC(=O)C1CCCN(C(=O)CCl)C1 (stereo not drawn),35.5
3,Cc1ccc(C=C(C#N)C(=O)NC2CCCCC2C)o1 (stereo not drawn),-2.33
4,C=CC(=O)N1CCc2nnc(N(C)C)cc2C1,3.13
5,Cc1ccc(C=C(C#N)C(=O)NCCc2ccccc2)o1,4.17
6,Cc1ccc(C=C(C#N)S(C)(=O)=O)cc1,10.2
7,CC1(C)OB(c2ccc3ccoc3c2)OC1(C)C,9.89
8,C=CC(=O)N[C@@H](C)C(=O)Nc1cccnc1C,25.3
9,O=S1(=O)C=CC(Nc2cccc(C(F)(F)F)c2)C1 (stereo not drawn),17.4
10,Cc1cc2cc(B3OC(C)(C)C(C)(C)O3)ccc2[nH]1,6.59
11,C=CC(=O)N1CCOCC1CC(=O)c1ccco1 (stereo not drawn),5.89
12,Cc1ccsc1C=CC(=O)N1CCNC(=O)C1,4.4
13,CN(Cc1ccnn1C)C(=O)C=CC(=O)O,17.1
14,C=CC(=O)N1CCOC(c2nncn2CC)C1 (stereo not drawn),1.87
15,Cc1nc(CN2CCN(C(=O)CCl)CC2)cs1.Cl,10.9
16,Cn1ccc(Nc2ccc(S(=O)(=O)F)cn2)n1,4.77
17,CC1CCCN(C2CC(C)OC2=O)C1 (stereo not drawn),17
18,Cc1csc(C(C#N)C(=O)CCl)n1 (stereo not drawn),4.74
19,O=C(O)[C@H]1CCCN1C(=O)C=Cc1cncc(F)c1,2.07
20,N#Cc1ncn(Cc2ccc(OCC(F)(F)F)cc2)n1,7.91
21,CC1CCc2c(sc(NC(=O)CCl)c2C#N)C1 (stereo not drawn),29.4
22,Cc1cc(C(=O)Cn2cnc(C#N)n2)c(C)n1C1CC1,17.1
23,O=C(CCl)Nc1cc(Cl)c(Cl)cc1Cl,4.48
24,Cc1ncsc1CCn1cnc(C(F)(F)F)c1C#N,5.84

row,SMILES,Inhibition % [%]
1,N#Cc1nc(N[C@@H]2C=C[C@H](CO)C2)ccc1Cl,7.61
2,C=CC(=O)N1CC(COC)(c2ccccc2)C1,11.2
3,COc1ccc(-c2csc(NC(=O)CCl)n2)c(O)c1,6.77
4,C=CC(=O)NC1CCC(C)(C)CC1C (stereo not drawn),-0.012
5,C=CC(=O)NCc1c(F)cc(C)cc1F,5.28
6,CC(C)n1cc(C2NC(=O)C23CCOCC3)cn1 (stereo not drawn),6.3
7,C#CC(=O)Nc1cnn(CC(=O)O)c1,25.4
8,O=C(NCc1nc(C2CC2)cs1)c1cccnc1S,2.33
9,N#Cc1ncn(CCC(=O)Nc2cccc(Cl)c2)n1,3.5
10,Cc1cc(NC(=O)CCl)n(C2CCS(=O)(=O)C2)n1 (stereo not drawn),32.6
11,O=C(OCc1ccccc1)N1CCCCC1CS(=O)(=O)F (stereo not drawn),16
12,C=CC(=O)N1CCC(NC(=O)C2CCC2)C1 (stereo not drawn),8.54
13,C=CC(=O)NC1(c2ccccc2Cl)CC1,10.9
14,Cc1nc(CN(C#N)c2ccc(F)cc2)no1,9.23
15,CCN(C(=O)CCl)C(C)c1ccc(F)cc1 (stereo not drawn),9.9
16,C=CC(=O)N1CCN(Cc2ccon2)CC1,4.28
17,Cc1cc(NC(=O)OC(C)(C)C)cc(B2OC(C)(C)C(C)(C)O2)c1,-0.551
18,Cn1cnc2ccc(B3OC(C)(C)C(C)(C)O3)cc21,5.09
19,O=C(CN1CCSC1=O)Nc1cc(F)ccc1F,3.13
20,Cc1ccccc1C1CO1 (stereo not drawn),5.37
21,CCc1ccc(OC)c(S(=O)(=O)n2ccnc2C)c1,8.38
22,O=C(Oc1cccc(-c2nnco2)c1)N1CCCCC1,1.92
23,c1ccc(-c2nnnn2CC2CO2)cc1 (stereo not drawn),-0.446
24,O=C(N[C@H]1CC[C@@H](CS(=O)(=O)F)C1)C1CCOCC1 (racemic),77.4

row,SMILES,Inhibition % [%]
1,CC1OCCC12CN(C(=O)c1ccc(B(O)O)cc1)CCO2 (stereo not drawn),-0.714
2,C=CC(=O)N[C@H]1C[C@@H]1C(F)F,0.856
3,O=C1CC2(CCN(Cc3ccc(Cl)cc3Cl)CC2)N1,-1.16
4,C=CC(=O)NC1CCC2SCCSC12 (stereo not drawn),1.43
5,C=CCNC(=O)C(C#N)=Cc1ccccc1OC,10.9
6,N#CC=C1CCCCC1,7.63
7,C=CC(=O)N1CCN(c2nc3ccccc3o2)C(C)C1 (stereo not drawn),8.27
8,CC1(C)OB(c2cccc(N)c2)OC1(C)C,12.8
9,N#Cc1ccccc1NC(=O)CN1C(=O)CCC1=O,8.4
10,CN1CCN(C(=O)C(C#N)=Cc2ccc(F)cc2)CC1.Cl,20.3
11,C=CC(=O)NCC1CCN(c2ccccc2F)C1 (stereo not drawn),9.51
12,C=CC(=O)NC1CCCN(Cc2ccnc(C)n2)C1=O (stereo not drawn),6.32
13,C=CC(=O)N1CCC2CSCC2C1 (stereo not drawn),8.64
14,C=CC(=O)NC1(c2ccccc2F)CC1,3.52
15,C=CC(=O)NC(c1nnc2ccccn12)C(C)C (stereo not drawn),3.07
16,Cc1ccn(S(=O)(=O)c2ccc(Cl)cc2Cl)n1,2.67
17,N#Cc1ncccc1C(F)(F)F,7.37
18,Cc1c(Cl)ccnc1C#N,8.18
19,Cc1cc(=O)n2c3ccccc3n(CC3CO3)c2c1C#N (stereo not drawn),5.28
20,C=CC(=O)N[C@H]1C[C@H](c2ccccc2F)C1,10.2
21,C=CC(=O)N1CCC(C(=O)N2CCCC2)C1 (stereo not drawn),0.856
22,CC(Cc1c(F)cccc1F)NC(=O)CCl (stereo not drawn),7.95
23,CC1(C)OB(c2ccc(S(N)(=O)=O)c(C(F)(F)F)c2)OC1(C)C,5.87
24,Cc1ccc(C=CC(=O)N2CCOCC2)o1,11.9

row,SMILES,Inhibition % [%]
1,CC(=O)N(c1cccc(C)c1)C1C=CS(=O)(=O)C1 (stereo not drawn),8.51
2,N#CC(=Cc1ccc(N2CCCCC2)cc1)C(N)=O,-0.766
3,O=c1onc(-c2cnccn2)n1Cc1ccc(Cl)s1,8.4
4,O=C1CC2(CCCC2)N1,4.3
5,O=C(O)CC1(CS)CC1,80.8
6,CSc1ccc(C(=O)CCl)cc1NC(C)=O,37.7
7,COc1ccc(OC)c(C=C(C#N)C(N)=O)c1,-2.68
8,CCOc1cc(S(=O)(=O)n2ccc(C)n2)ccc1F,4.42
9,C=CC(=O)NC[C@H]1CC(=O)N(C)[C@@H]1c1c(C)nn(C)c1C (racemic),6.04
10,C=CC(=O)Nc1ccc2c(OC)nccc2c1,11.8
11,O=C(CCl)NCc1ccccc1,13
12,N#Cc1ncccc1N1CCc2ccccc2C1,26.9
13,N#Cc1ccc(N2CCOCC3(CCCC3)C2)cn1,6.43
14,C=CC(=O)N1CCC(C(=O)N(C)OC)CC1,-0.807
15,COc1ccc(S(=O)(=O)n2cccn2)c(C)c1C,4.5
16,Cn1c(=O)[nH]c2ccc(B3OC(C)(C)C(C)(C)O3)cc21,0.0918
17,O=C(CCl)COc1ccc(Cl)cc1,97.8
18,Clc1ccc([C@@H]2CO2)cc1Cl,30.1
19,Cc1cccc(-n2nnnc2SC2CC(C)OC2=O)c1 (stereo not drawn),3.51
20,Cc1ccc(C)c(C(=O)Cn2cnc(C#N)n2)c1,-2.83
21,C=CC(=O)NCCOC1CCCCC1C (stereo not drawn),10
22,C=CC(=O)NCC1CCC2CC1CO2 (stereo not drawn),4.2
23,C=CC(=O)NC1(c2ccc(F)cc2F)CCC1,0
24,C#CC(=O)Nc1ccc(NC(C)=O)cc1C(=O)O,18.4

row,SMILES,Inhibition % [%]
1,CC1CCCN(C(=O)CN2CCCCC2C2OCCO2)C1 (stereo not drawn),-4
2,CCN(C)CC1CCN(S(=O)(=O)C=Cc2ccccc2)C1 (stereo not drawn),3.63
3,CC(c1cc2ccccc2o1)N(C)C(=O)CCl (stereo not drawn),96.1
4,C[C@H]1CN(C2CCOCC2)CCN1c1ccc(S(=O)(=O)F)cn1,5.99
5,C=CC(=O)NC1CSC1(C)C (stereo not drawn),6.84
6,Cc1occc1-c1nnc(SC2CCOC2=O)n1C (stereo not drawn),12.4
7,O=C(CCl)N1CCc2[nH]c3ccccc3c2C1,-3.49
8,Cc1cc2ncn(C(=O)N3CCOCC3)c2cc1C,1.73
9,Nc1ccc(NC(=O)Oc2ccccc2)cc1,11.2
10,CC1N(c2cccc(C#N)n2)CCC12CCOCC2 (stereo not drawn),6.61
11,O=C1SCCN1CCC(=O)N1CCc2ccccc21,9.19
12,O=C(CCl)Nc1ccc(S(=O)(=O)C(F)F)cc1,65.8
13,Cn1cc(C=CC(=O)N2CCNC(=O)C2)cn1,4.98
14,O=C(CN1CCSC1=O)Nc1ccc(Cl)cc1Cl,3.69
15,COc1ccc(N2CCN(C(=O)n3ccnc3)CC2)cc1,1.24
16,O=S(=O)(C=Cc1ccccc1)NCC(F)(F)F,10.1
17,Cc1n[nH]c2ccc(B3OC(C)(C)C(C)(C)O3)cc12.Cl,7.34
18,COc1ccccc1C=CC(=O)N1CC(C)C(O)C1 (stereo not drawn),7.9
19,CC1CCCCN1C(=O)C=Cc1cn(C)c(=O)n(C)c1=O (stereo not drawn),6.42
20,Cc1nn(C)c(Cl)c1C=CC(=O)N1CCC(N)C1.Cl (stereo not drawn),17.1
21,Cc1csc(N2CCN(C3CC(C)OC3=O)CC2)n1 (stereo not drawn),9.28
22,N#CCc1ccc(OCC2CO2)cc1 (stereo not drawn),8.66
23,CC(C)n1ccnc1C(=O)CCl,48.7
24,N#Cc1nccnc1N1CCC(=Cc2ccccc2)CC1,12.8
